{"source": "PubChem BioAssay AID624417", "about": "(National Center for Advancing Translational Sciences (NCATS), 2012)", "note": "Values joined by “and” are separate entries in the source; they are usually repeats but may differ in a detail not shown here. Identical values can stand only once. The campaign covered roughly 410,000 compounds. About 6,400 (1.6%) were called active. This list was built around the results that the source calls inconclusive (neither active nor inactive); the mix of calls is not that of the screen. Calls follow the shape of the dose curve; as a rule, active = well fitted inhibition curve with a large enough effect; inconclusive = small, poorly fitted or top-dose-only effect; inactive = no such curve, though single readings can be large or run the other way. A potency beside an inconclusive call is a rough fit, not a confirmed value. % is scaled to controls: 0 for no effect and ±100 for the full control effect; potency is read from the fitted curve at half-maximal effect; tags tell the direction and shape of the fitted curve.", "data": [{"target": "Glucagon-like peptide 1 receptor (Homo sapiens) (UniProt P43220)", "sequence (P43220 whole entry, looked up)": "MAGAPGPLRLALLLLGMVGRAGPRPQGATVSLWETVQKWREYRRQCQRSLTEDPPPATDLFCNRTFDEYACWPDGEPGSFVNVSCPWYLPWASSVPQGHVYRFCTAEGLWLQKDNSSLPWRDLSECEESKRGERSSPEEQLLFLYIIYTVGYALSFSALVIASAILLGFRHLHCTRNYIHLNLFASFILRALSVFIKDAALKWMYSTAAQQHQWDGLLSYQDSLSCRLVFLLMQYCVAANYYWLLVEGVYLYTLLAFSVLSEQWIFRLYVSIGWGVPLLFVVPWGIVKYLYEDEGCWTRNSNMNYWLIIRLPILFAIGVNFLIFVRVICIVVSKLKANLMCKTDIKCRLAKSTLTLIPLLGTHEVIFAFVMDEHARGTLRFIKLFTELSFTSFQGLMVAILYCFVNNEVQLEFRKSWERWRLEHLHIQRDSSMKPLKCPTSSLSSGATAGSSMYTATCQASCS", "test": "qHTS of GLP-1 Receptor Inverse Agonists (Inhibition Mode); also: nearly all actives have a fitted effect of over 55% in size", "conditions": "HEK293 GLP-1R CRE-luciferase, luminescence, 24 h, GLP-1R form is constitutively active; activity change, negative = inhibition: at 38.3 µM (top of the series) unless noted", "procedure,_shortened": "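qHTS in 1536-well format: reporter HEK293 cells expressing constitutive GLP-1R activity in DMEM + 10% Nu serum, 24 hr with compounds at 37 deg C, luminescence read after 12 min with detection reagent.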", "values": [{"smiles": "N#Cc1ccccc1NC(=O)CNc1ccccc1N1CCCCC1", "Potency": "inconclusive: 3.55 µM [inhibitor, partial curve, poor fit]"}, {"smiles": "COc1ccccc1OCCCn1cc(C#N)c2ccccc21", "Potency": "inconclusive: 28.2 µM [inhibitor, single point]"}, {"smiles": "COc1ccc(-c2c(-c3cc(OC)c(OC)c(OC)c3)noc2C)cn1", "Potency": "inconclusive: 0.501 µM [inhibitor, full curve, poor fit]"}, {"smiles": "Cc1ccc(N2C(=O)N(CC(=O)Nc3c(C)cc(C)cc3Cl)C(=O)C2C)cc1", "note": "(centres undefined)", "Potency": "active: 10 µM"}, {"smiles": "Cn1c2ccccc2c2c(C(=O)N3CCN(c4ccccn4)CC3)cn(C3CCCC3)c(=O)c21", "Potency": "inconclusive: 7.94 µM [inhibitor, partial curve, poor fit]"}, {"smiles": "CC(C(=O)Nc1ccc(F)c(F)c1F)N(C)Cc1cccs1", "note": "(centres undefined)", "Potency": "inconclusive: 8.91 µM [inhibitor, partial curve, poor fit]"}, {"smiles": "COc1ccc(-c2cc(C(F)(F)F)nc(S(C)(=O)=O)n2)cc1", "Potency": "inconclusive: 28.2 µM [inhibitor, single point]"}, {"smiles": "CCOC(=O)c1sc2ccccc2c1S(=O)(=O)Nc1ccc(CC)cc1", "Potency": "inconclusive: 12.6 µM [inhibitor, partial curve, poor fit]"}, {"smiles": "O=C(O)/C=C/C(=O)c1c(-c2ccccc2)[nH]c2ccccc12", "Potency": "inconclusive: 28.2 µM [inhibitor, single point]"}, {"smiles": "COc1ccc(/C=C/CN2CCN(Cc3ccc(F)cc3)C(CCO)C2)cc1", "note": "(centres undefined)", "Potency": "inconclusive: 8.91 µM [inhibitor, partial curve, poor fit]"}, {"smiles": "CCc1ccc(NC(=O)CO/N=C(\\C)c2cc3ccccc3o2)cc1", "Potency": "active: 11.2 µM"}, {"smiles": "CCCNC(=S)NC1CC2CCCC(C1)N2Cc1ccc(F)cc1", "note": "(centres undefined)", "Potency": "inconclusive: 14.1 µM [inhibitor, partial curve, poor fit]"}, {"smiles": "Cc1cccc(C)c1NC(=O)C(c1ccnc2ccccc12)n1c(=O)c(-c2ccccc2)nc2ccccc21", "note": "(centres undefined)", "Potency": "inconclusive: 12.6 µM [inhibitor, single point]"}, {"smiles": "O=C(c1ccccc1)n1nc(-c2ccccc2)nc1NCc1ccc(F)cc1", "Potency": "inconclusive: 22.4 µM [inhibitor, single point]"}, {"smiles": "Cc1cccnc1NC(=S)NCCc1ccccc1", "Potency": "inconclusive: 28.2 µM [inhibitor, single point]"}, {"smiles": "O=C(Nc1ccc(F)c(F)c1)c1cc(S(=O)(=O)NC2CCCCCC2)ccc1F", "Potency": "inconclusive: 20 µM [inhibitor, partial curve, poor fit]"}, {"smiles": "COc1ccc(CNC(=O)CN(C(=O)c2cc3sccc3n2C)C2CCCC2)cc1", "Potency": "inconclusive: 11.2 µM [inhibitor, partial curve, poor fit]"}, {"smiles": "CC1CCCN(CCCNC(=O)c2cc3c(s2)-c2ccccc2OC3)C1", "note": "(centres undefined)", "Potency": "active: 8.91 µM"}, {"smiles": "Cc1ccc(C)c(N2CCN(C(=O)CCc3nc(-c4ccccc4Cl)no3)CC2)c1", "Potency": "inconclusive: 28.2 µM [inhibitor, single point]"}, {"smiles": "COc1ccc(C)cc1NC(=O)NC1CC(=O)N(c2ccc3c(c2)OCCO3)C1", "note": "(centres undefined)", "Potency": "inconclusive: 11.2 µM [inhibitor, partial curve]"}, {"smiles": "Cc1ccc(S(=O)(=O)Nc2cccc3ncccc23)s1", "Potency": "inconclusive: 1.12 µM [inhibitor, full curve, poor fit]"}, {"smiles": "Nc1nc2ccccc2n1C(=O)c1ccco1", "Potency": "inconclusive: 2.51 µM [inhibitor, partial curve, poor fit]"}, {"smiles": "CCCN1C(=O)c2cc(C(=O)Nc3ccc(OC)cc3OC)ccc2C1Nc1ccc(OC)cc1OC", "note": "(centres undefined)", "Potency": "inconclusive: 12.6 µM [inhibitor, partial curve, poor fit]"}, {"smiles": "CC(C)=CCc1c(O)cc2oc3c(CC=C(C)C)c(O)c(O)c(CC=C(C)C)c3c(=O)c2c1O", "Potency": "inconclusive: 31.6 µM [inhibitor, partial curve, poor fit]"}, {"smiles": "O=C(CCC(=O)N1CCSc2ccccc21)NCc1cccc(Br)c1", "Potency": "inconclusive: 10 µM [inhibitor, partial curve]"}, {"smiles": "COc1ccc(C(=O)NC(C)c2nnc(SCc3ccc(Cl)c(Cl)c3)n2C)cc1", "note": "(centres undefined)", "Potency": "inconclusive: 5.62 µM [inhibitor, full curve, poor fit]"}, {"smiles": "CN(C)C(CNC(=O)C1CCN(S(=O)(=O)c2ccc(Cl)cc2)CC1)c1ccccc1", "note": "(centres undefined)", "Potency": "inconclusive: 12.6 µM [inhibitor, partial curve, poor fit]"}, {"smiles": "Cc1cc(C)cc(NC(=O)Cn2cc(S(=O)(=O)NC(C)(C)C)c(S(=O)(=O)NC(C)(C)C)c2)c1", "Potency": "inconclusive: 10 µM [inhibitor, partial curve, poor fit]"}, {"smiles": "O=C(NCCn1cc(SCc2ccccc2Cl)c2ccccc21)c1cccs1", "Potency": "inconclusive: 14.1 µM [inhibitor, single point]"}, {"smiles": "O=C1CCCN1CCCNS(=O)(=O)c1ccccc1", "activity change, negative = inhibition": "inactive: 11%"}, {"smiles": "COP(=O)(OC)C(Nc1cc(Cl)cc(Cl)c1)c1cccc(O)c1", "note": "(centres undefined)", "Potency": "inconclusive: 28.2 µM [inhibitor, single point]"}, {"smiles": "C[C@@H]1CN([C@H](C)CO)C(=O)c2c(c3ccccc3n2C)-c2ccccc2CO[C@H]1CN(C)C(=O)NC1CCCCC1", "Potency": "inconclusive: 28.2 µM [inhibitor, single point]"}, {"smiles": "COc1ccccc1NC(=O)Cn1c(SCC(=O)N(C)c2ccccc2)nc2ccccc21", "Potency": "inconclusive: 14.1 µM [inhibitor, single point]"}, {"smiles": "COC(=O)CN1C(=S)N(Cc2ccccc2)C(=O)C1CC(=O)Nc1ccc(Br)cc1", "note": "(centres undefined)", "Potency": "inconclusive: 7.94 µM [inhibitor, partial curve, poor fit]"}, {"smiles": "O=C1N(Cc2ccccc2)c2ccc(Cl)cc2C1(O)c1c[nH]c2ccccc12", "note": "(centres undefined)", "Potency": "inconclusive: 11.2 µM [inhibitor, partial curve, poor fit]"}, {"smiles": "NNC(=O)c1cc2cc3ccccc3nc2s1", "Potency": "inconclusive: 28.2 µM [inhibitor, single point]"}, {"smiles": "COC(=O)c1ccc(N2C(c3cccc(OC)c3)=Cc3ccc(F)cc3C2c2c(C)[nH]c3ccccc23)cc1", "note": "(centres undefined)", "Potency": "inconclusive: 14.1 µM [inhibitor, single point]"}, {"smiles": "CN1CCN(/N=C/c2ccc(-c3ccc([N+](=O)[O-])cc3Cl)o2)CC1", "Potency": "inconclusive: 10 µM [inhibitor, partial curve, poor fit]"}, {"smiles": "CCC(C(=O)NCc1ccco1)n1nc(C)c2c(C)n(-c3ccc(C)cc3)nc2c1=O", "note": "(centres undefined)", "Potency": "inconclusive: 28.2 µM [inhibitor, single point] and inconclusive: 31.6 µM [inhibitor, single point]"}, {"smiles": "CCN(c1ccccc1)S(=O)(=O)c1ccc(Oc2ccc(C(C)=O)cc2OC)nc1", "Potency": "inconclusive: 12.6 µM [inhibitor, single point]"}, {"smiles": "CC(C)(C)c1ccccc1NC(=S)NC1CCCCC1", "Potency": "inconclusive: 17.8 µM [inhibitor, single point]"}, {"smiles": "O=C(CSc1nnc(SCc2ccccc2)s1)NNC(=S)Nc1ccccc1", "activity change, negative = inhibition": "inactive: 2.2%"}, {"smiles": "COc1cccc(C(=O)N2CCN(CCc3ccncc3)CC2)c1", "Potency": "inconclusive: 5.01 µM [inhibitor, full curve, poor fit]"}, {"smiles": "S=C(Nc1ccc(Oc2ccccc2)cc1)NC1CCCC1", "Potency": "inconclusive: 28.2 µM [inhibitor, single point]"}, {"smiles": "Cc1cc(NC(=O)Nc2ccc(Cl)c(Cl)c2)no1", "Potency": "inconclusive: 11.2 µM [inhibitor, partial curve, poor fit]"}, {"smiles": "COc1cccc(NC(=O)c2cc(-c3ccccn3)nc3ccccc23)c1", "Potency": "inconclusive: 28.2 µM [inhibitor, single point]"}, {"smiles": "Cc1sc2nc(CSc3ccccc3)nc(N3CCC(C(N)=O)CC3)c2c1C", "Potency": "inconclusive: 28.2 µM [inhibitor, single point]"}, {"smiles": "COc1ccccc1CN(CC(=O)NCc1ccco1)C(=O)CNS(=O)(=O)c1ccc(C)cc1", "Potency": "inconclusive: 28.2 µM [inhibitor, single point]"}, {"smiles": "CC(=O)NC(c1ccc(C(C)C)cc1)c1c(O)ccc2ccccc12", "note": "(centres undefined)", "Potency": "inconclusive: 7.94 µM [inhibitor, partial curve, poor fit]"}, {"smiles": "CN(C)c1ccc(C(=O)C(O)c2ccccc2Cl)cc1", "note": "(centres undefined)", "activity change, negative = inhibition": "inactive: -26.7%"}, {"smiles": "COc1cc2c(cc1NC(=O)CN(C)Cc1ccc(OC)c(OC)c1)oc1ccccc12", "Potency": "inconclusive: 3.98 µM [inhibitor, partial curve, poor fit]"}, {"smiles": "CC(C)c1ccc(NC(=O)CN2C(=O)COc3ccc(S(=O)(=O)N4CCCCC4)cc32)cc1", "Potency": "inconclusive: 12.6 µM [inhibitor, partial curve, poor fit]"}, {"smiles": "CCc1c(C(=O)Nc2ccccc2)c(C)[nH]c(=S)c1C#N", "activity change, negative = inhibition": "inactive: 0.303%"}, {"smiles": "CCCC(=O)NC(c1ccc(OC)c(OC)c1)c1cc(Cl)c2cccnc2c1O", "note": "(centres undefined)", "Potency": "inconclusive: 28.2 µM [inhibitor, single point]"}, {"smiles": "Cc1ccc(CNC(=O)C(=O)NCC2OCCN2C(=O)c2ccc(Cl)cc2)cc1", "note": "(centres undefined)", "Potency": "inconclusive: 28.2 µM [inhibitor, single point]"}, {"smiles": "Cc1cc(N2CCOCC2)c2c(N)c(Br)cc(C)c2n1", "Potency": "inconclusive: 1.12 µM [inhibitor, full curve]"}, {"smiles": "CN(C)CC(O)COc1ccc(C(C)(C)c2ccc(OCC(O)CN(C)C)cc2)cc1", "note": "(centres undefined)", "Potency": "inconclusive: 1.78 µM [inhibitor, full curve, poor fit]"}, {"smiles": "CCOc1ccc(Nc2oc(-c3ccco3)nc2C#N)cc1", "Potency": "inconclusive: 28.2 µM [inhibitor, single point]"}, {"smiles": "CN(C)c1ccc(C2OC(=O)C(C)(C)C(=O)C2(C)C)cc1", "note": "(centres undefined)", "Potency": "inconclusive: 28.2 µM [inhibitor, single point]"}]}]}
